Some of the results follow. Values come from read counts of a selection and are noisy.
The sequences below were run on Drosophila AGO1 (endogenous, S2-R+ lysate) (assay: AGO1 loading enrichment factor (IP read count / input read count, not library-size normalised) (ratio); higher = more efficient loading into AGO1). Details: randomized region: 5' 5N of miR-317 loop.
Description: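 HISSA: 5'-phosphorylated, 32P-labelled 20-nt ssRNA oligos (miR-317 loop, first 5 nt randomized, constant 3' part TGAAATGCAAGCAAG as printed in methods; DNA letters for RNA) incubated 1 h at 25°C in S2-R+ cell lysate. Endogenous AGO1 was immunopurified with anti-AGO1 and bound oligos were sequenced after splinted ligation.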
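Note: S2-R+ lysate came from cells stably expressing FLAG-tagged AGO2, enrichment per 5N variant computed with FASTAptamer, reads lacking the constant 3′ segment discarded.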

Row | Sequence | AGO1 loading enrichment factor
1 | AGCCCTGAAATGCAAGCAAG | 0.133
2 | CTCAATGAAATGCAAGCAAG | 0.0698
3 | TAATTTGAAATGCAAGCAAG | 0.151
4 | AGGGTTGAAATGCAAGCAAG | 0.29
5 | AGCTATGAAATGCAAGCAAG | 0.0765
6 | GCGCCTGAAATGCAAGCAAG | 1.18
7 | CAGTTTGAAATGCAAGCAAG | 0.0401
8 | TATCATGAAATGCAAGCAAG | 0.767
9 | GGGAGTGAAATGCAAGCAAG | 0.77
10 | TTAGGTGAAATGCAAGCAAG | 0.233
11 | TAATATGAAATGCAAGCAAG | 0.284
12 | GTACTTGAAATGCAAGCAAG | 0.0328
13 | CGCCATGAAATGCAAGCAAG | 0.25
14 | ATGCATGAAATGCAAGCAAG | 0.412
15 | AACAGTGAAATGCAAGCAAG | 0.156
16 | ACCAATGAAATGCAAGCAAG | 0.134
17 | TGGAATGAAATGCAAGCAAG | 0.31
18 | TTAAATGAAATGCAAGCAAG | 0.778
19 | CTATTTGAAATGCAAGCAAG | 0.0648
20 | TTTACTGAAATGCAAGCAAG | 0.953
21 | TTCTTTGAAATGCAAGCAAG | 0.288
22 | CCTTTTGAAATGCAAGCAAG | 0.0182
23 | TACCATGAAATGCAAGCAAG | 0.386
24 | GCTCATGAAATGCAAGCAAG | 0.0697
25 | CTTATTGAAATGCAAGCAAG | 0.0136

Row | Sequence | AGO1 loading enrichment factor
26 | CAGTCTGAAATGCAAGCAAG | 0.128
27 | TTACATGAAATGCAAGCAAG | 0.221
28 | AAGAATGAAATGCAAGCAAG | 0.188
29 | GGGCGTGAAATGCAAGCAAG | 0.413
30 | CAGGCTGAAATGCAAGCAAG | 0.0332
31 | CTCCTTGAAATGCAAGCAAG | 0.0359
32 | AAGAGTGAAATGCAAGCAAG | 0.236
33 | AAGCATGAAATGCAAGCAAG | 0.135
34 | AGGGCTGAAATGCAAGCAAG | 0.0472
35 | TGTGATGAAATGCAAGCAAG | 0.248
36 | CGCACTGAAATGCAAGCAAG | 0.0857
37 | TTGCGTGAAATGCAAGCAAG | 0.174
38 | CCCTCTGAAATGCAAGCAAG | 0.943
39 | TTCGTTGAAATGCAAGCAAG | 0.224
40 | TATACTGAAATGCAAGCAAG | 0.476
41 | TCCAATGAAATGCAAGCAAG | 0.166
42 | CCAGCTGAAATGCAAGCAAG | 0.0313
43 | GCGTATGAAATGCAAGCAAG | 0.0848
44 | GAACTTGAAATGCAAGCAAG | 0.0498
45 | ATTTTTGAAATGCAAGCAAG | 0.0661
46 | GCCCGTGAAATGCAAGCAAG | 0.0717
47 | AGTATTGAAATGCAAGCAAG | 0.0959
48 | GCCGCTGAAATGCAAGCAAG | 0.0264
49 | GCCCCTGAAATGCAAGCAAG | 0.116
50 | TATGATGAAATGCAAGCAAG | 0.304

Row | Sequence | AGO1 loading enrichment factor
51 | ATACCTGAAATGCAAGCAAG | 0.179
52 | TACAGTGAAATGCAAGCAAG | 0.441
53 | ACCTTTGAAATGCAAGCAAG | 0.394
54 | GTTATTGAAATGCAAGCAAG | 0.0975
55 | GCCGTTGAAATGCAAGCAAG | 0.098
56 | AATCGTGAAATGCAAGCAAG | 0.176
57 | AAACTTGAAATGCAAGCAAG | 0.0459
58 | CTGCGTGAAATGCAAGCAAG | 0.131
59 | TAACTTGAAATGCAAGCAAG | 0.282
60 | TGCCCTGAAATGCAAGCAAG | 0.266
61 | GTGCGTGAAATGCAAGCAAG | 0.124
62 | ACCGGTGAAATGCAAGCAAG | 0.303
63 | ATCTCTGAAATGCAAGCAAG | 0.156
64 | ATCAGTGAAATGCAAGCAAG | 0.243
65 | TCTCATGAAATGCAAGCAAG | 0.588
66 | ATGTCTGAAATGCAAGCAAG | 0.173
67 | TCGTTTGAAATGCAAGCAAG | 0.274
68 | GCAAGTGAAATGCAAGCAAG | 0.0277
69 | GTTACTGAAATGCAAGCAAG | 0.105
70 | TGAAATGAAATGCAAGCAAG | 0.186
71 | TCACCTGAAATGCAAGCAAG | 1.26
72 | AGGCATGAAATGCAAGCAAG | 0.0747
73 | CTACGTGAAATGCAAGCAAG | 0.0797
74 | AAATATGAAATGCAAGCAAG | 0.116
75 | CTAATTGAAATGCAAGCAAG | 0.13

Row | Sequence | AGO1 loading enrichment factor
76 | GACAGTGAAATGCAAGCAAG | 1.82
77 | GGATTTGAAATGCAAGCAAG | 0.0728
78 | CAATTTGAAATGCAAGCAAG | 0.172
79 | AACACTGAAATGCAAGCAAG | 0.238
80 | CCATATGAAATGCAAGCAAG | 0.0956
81 | TTCATTGAAATGCAAGCAAG | 0.213
82 | TTGTATGAAATGCAAGCAAG | 0.234
83 | AGGGATGAAATGCAAGCAAG | 2.92
84 | CATCTTGAAATGCAAGCAAG | 0.0253
85 | ATATATGAAATGCAAGCAAG | 0.106
86 | AGATTTGAAATGCAAGCAAG | 0.0568
87 | ATTTATGAAATGCAAGCAAG | 0.128
88 | CGTTGTGAAATGCAAGCAAG | 0.00649
89 | GTCCGTGAAATGCAAGCAAG | 0.0948
90 | CGTTATGAAATGCAAGCAAG | 0.0891
91 | CACCGTGAAATGCAAGCAAG | 0.09
92 | ACCCGTGAAATGCAAGCAAG | 0.345
93 | GTGAGTGAAATGCAAGCAAG | 0.133
94 | AGGCTTGAAATGCAAGCAAG | 0.0177
95 | TAAGTTGAAATGCAAGCAAG | 0.324
96 | GCATCTGAAATGCAAGCAAG | 0.0756
97 | AATGGTGAAATGCAAGCAAG | 0.191
98 | GTCATTGAAATGCAAGCAAG | 0.141

Source: the supplement of paper PMC6451100
